Data from PubChem BioAssay AID504339 (National Center for Advancing Translational Sciences (NCATS), 2011).
Screen size: about 390,000 compounds; about 17,000 (4.4%) were called active. The shares of active, inactive and inconclusive entries below differ from those in the screen. Calls come from the whole dose curve; as a rule, active = well fitted inhibition curve with a large enough effect; inconclusive = small, poorly fitted or top-dose-only effect; inactive = no such curve, though single readings can be large or run the other way. Where the call is inconclusive, the potency comes from a doubtful curve fit.

Target: Lysine-specific demethylase 4A (Homo sapiens) (UniProt O75164)
Assay: qHTS Assay for Inhibitors of JMJD2A-Tudor Domain; note: nearly all actives have a fitted effect of over 50% in size
Conditions: AlphaScreen JMJD2A-Tudor / H3K4me3 peptide binding; activity change, negative = inhibition: at 114 µM (top of the series)
% is set by controls: 0 for no effect and ±100 for the full control effect; potency is the fitted concentration of half-maximal effect; tags give direction and shape of the fitted curve.

UniProt O75164, sequence (O75164 whole entry, looked up, the tested form may be a part): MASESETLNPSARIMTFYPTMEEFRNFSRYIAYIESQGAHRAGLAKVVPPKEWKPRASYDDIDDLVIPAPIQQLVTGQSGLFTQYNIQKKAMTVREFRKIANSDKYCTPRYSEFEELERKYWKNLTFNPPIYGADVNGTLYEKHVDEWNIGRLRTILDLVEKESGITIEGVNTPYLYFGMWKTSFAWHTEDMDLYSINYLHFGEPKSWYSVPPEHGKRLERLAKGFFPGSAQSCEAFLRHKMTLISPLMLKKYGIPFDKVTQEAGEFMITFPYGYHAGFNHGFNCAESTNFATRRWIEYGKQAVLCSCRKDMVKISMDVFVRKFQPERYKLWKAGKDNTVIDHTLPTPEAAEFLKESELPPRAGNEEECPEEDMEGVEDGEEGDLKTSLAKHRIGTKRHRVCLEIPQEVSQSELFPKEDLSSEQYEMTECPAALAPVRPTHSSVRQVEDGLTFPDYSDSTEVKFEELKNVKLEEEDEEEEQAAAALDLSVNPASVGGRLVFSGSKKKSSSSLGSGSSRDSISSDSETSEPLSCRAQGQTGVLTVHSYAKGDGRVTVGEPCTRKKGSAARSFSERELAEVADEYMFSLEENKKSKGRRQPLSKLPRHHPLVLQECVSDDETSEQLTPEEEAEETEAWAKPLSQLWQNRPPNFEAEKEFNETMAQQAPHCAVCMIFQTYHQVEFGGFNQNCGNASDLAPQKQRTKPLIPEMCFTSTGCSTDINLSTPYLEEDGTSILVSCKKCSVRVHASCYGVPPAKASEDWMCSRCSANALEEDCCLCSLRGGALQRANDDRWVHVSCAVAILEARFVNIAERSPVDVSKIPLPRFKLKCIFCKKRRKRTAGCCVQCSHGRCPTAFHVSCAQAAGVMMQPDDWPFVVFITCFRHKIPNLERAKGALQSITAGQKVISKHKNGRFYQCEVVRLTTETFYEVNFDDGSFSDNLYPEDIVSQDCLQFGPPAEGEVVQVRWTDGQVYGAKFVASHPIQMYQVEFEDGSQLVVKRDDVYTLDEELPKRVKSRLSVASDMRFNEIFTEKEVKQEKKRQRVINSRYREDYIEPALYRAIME

Compound	Potency	activity change, negative = inhibition
Cc1n(CC(O)COC2CCCCC2)c2ccccc2[n+]1C (stereo unspecified)	active: 79.4 µM	
CCOc1ccc(CCNC(=O)c2c3c(nc4ccccc24)C(=O)N(C2CCCCC2)C3)cc1	inactive	
Cc1onc(-c2ccccc2)c1C(=O)N/N=C/c1ccc([N+](=O)[O-])s1	inconclusive: 56.2 µM [inhibitor, partial curve]	
CC[C@H](C)[C@@H]1NC(=O)c2cc([N+](=O)[O-])cc(F)c2NCCCC[C@@H](C(N)=O)NC(=O)[C@H](CC(N)=O)NC1=O	inactive	
COc1ccc(O)c(/C=N/N=C2/C(=O)Nc3ccccc32)c1	inconclusive: 35.5 µM [inhibitor, partial curve]	
COc1cccc(C2CC(c3ccc(Cl)cc3)n3nc(N)nc3N2)c1 (stereo unspecified)	inconclusive: 25.1 µM [inhibitor, full curve]	
O=C(C1CCCN(c2ncnc3c2nc2n3CCCCC2)C1)N1CCN(c2ccc(F)cc2)CC1 (stereo unspecified)	inconclusive: 50.1 µM [inhibitor, partial curve]	
NC(=O)N1N=C2/C(=C/c3ccccc3)CCCC2C1c1ccccc1 (stereo unspecified)	inactive	
CCOc1ccc2c(c1)NC(c1ccc(OCC)c(OCC)c1)=NC(c1ccc(F)cc1)=N2	active: 25.1 µM	
COc1ccc(N2CCN(C(=O)c3[nH]c4ccc(OC)cc4c3C)CC2)cc1	active: 28.2 µM	
Cc1ccc(-c2csc(NS(=O)(=O)c3cccc(F)c3)n2)o1	active: 56.2 µM	
COc1ccccc1Nc1nc(-c2sc(NC(=O)c3ccccc3)nc2C)cs1	inconclusive: 89.1 µM [inhibitor, single point]	
CCC1C(=O)C(C)(C)C(=O)OC1c1ccc([N+](=O)[O-])cc1 (stereo unspecified)	inactive	
CC(=O)OC1C(=O)N(Cc2ccccc2)C1c1ccc(C)cc1 (stereo unspecified)	inconclusive: 31.6 µM [inhibitor, single point]	
O=C(COc1ccc([N+](=O)[O-])cc1)Nc1ccccc1N1CCCC1	inconclusive: 39.8 µM [inhibitor, partial curve]	
COc1ccc(N2CCN(CCCNC(=O)C(=O)c3c(C)n(C)c4ccccc34)CC2)cc1	inconclusive: 1.58 µM [inhibitor, full curve, poor fit]	
c1ccc(-c2nnc3sc(-c4ccncc4)nn23)cc1	inactive	
Cn1c(=O)c2nc3ccccc3nc2n(C)c1=O	inactive	
O=C(CCCN1C(=O)/C(=C/c2ccc3c(c2)OCO3)SC1=S)Nc1cccc(C(=O)O)c1	inconclusive: 44.7 µM [inhibitor, partial curve]	
CCC(Nc1ccc(OC)cc1)C(=O)N/N=C/c1ccc([N+](=O)[O-])cc1 (stereo unspecified)	inconclusive: 44.7 µM [inhibitor, partial curve]	
O=C(CNCc1ccco1)Nc1ccc(N2CCCCCC2)cc1	active: 20 µM	
Cc1ccc(C2CC(=O)NC(SCc3ccccc3)=C2C#N)cc1 (stereo unspecified)	active: 89.1 µM	
CCc1ccc(-c2nc(CS(=O)CC(=O)NC3CCCCCC3)c(C)o2)cc1 (stereo unspecified)	inactive	
Oc1c(CN2CCCCC2)cc(COCc2ccccc2)c2cccnc12	active: 20 µM	

Compound	Potency	activity change, negative = inhibition
COc1ccc(Cl)cc1S(=O)(=O)NC(C)C(=O)NCc1ccc2c(c1)OCO2 (stereo unspecified)	active: 50.1 µM	
COc1ccc(N2CCN(C(=O)C3CCN(S(=O)(=O)c4c(C)noc4/C=C/N(C)C)CC3)CC2)cc1	inconclusive: 56.2 µM [inhibitor, partial curve]	
COc1ccc2c(c1)NC(c1ccc(Cl)cc1)=NC(c1cccs1)=N2	active: 14.1 µM	
O=C(COC(=O)c1ccccc1[N+](=O)[O-])c1ccc(C2CCCCC2)cc1	inconclusive: 89.1 µM [inhibitor, single point]	
NC(CO)c1cn([C@@H](CCC(=O)O)C(=O)N2CCNCC2)nn1 (stereo partly specified)	inconclusive: 79.4 µM [inhibitor, partial curve]	
CC1=C(C(=O)Nc2ccccc2)C(c2ccc(Cl)cc2)n2c(s/c(=C/c3cccc(OCC(=O)O)c3)c2=O)=N1 (stereo unspecified)	inconclusive: 39.8 µM [inhibitor, full curve]	
Cc1oc(-c2cccc(Br)c2)nc1Cn1c(SCc2cccc(F)c2)nc2cccnc21	inconclusive: 63.1 µM [inhibitor, partial curve]	
Cc1ccccc1/C=C\c1nc2ccccc2c(=O)[nH]1	inconclusive: 44.7 µM [inhibitor, partial curve]	
CN(C)CCNC(=O)/C(=C/c1ccc(-c2ccc(Cl)cc2Cl)o1)NC(=O)c1ccccc1	inconclusive: 22.4 µM [inhibitor, single point]	
c1ccc(Oc2nc(-c3ccccn3)nc3ccccc23)cc1	inconclusive: 0.631 µM [inhibitor, full curve, poor fit]	
COc1ccc(Br)cc1CNC(=O)CSc1n[nH]c(-c2ccccc2)n1	inactive	
CCCN(Cc1ccc(N(C)C)cc1)CC1CC1	inconclusive: 79.4 µM [inhibitor, partial curve]	
COc1ccc2ncnc(NCc3cccs3)c2c1-c1ccc2c(c1)OCO2	inconclusive: 50.1 µM [inhibitor, partial curve]	
COc1ccc(/C=N/N2CCN(c3ccccc3OC)CC2)cc1Br	inconclusive: 44.7 µM [inhibitor, partial curve]	
CSc1ccccc1OCc1cc(C(=O)N(C)Cc2cnccn2)no1	inactive	
CS/C(=N\S(=O)(=O)c1cccs1)Nc1ccc(F)cc1	inactive	
COc1ccc([C@H]2CC(=O)C=C(c3ccc4ccccc4c3)C2)cc1OC	inconclusive: 44.7 µM [inhibitor, full curve]	
CC(CCc1ccccc1)NC(=O)CCc1cn(C)c2ccccc12 (stereo unspecified)	inconclusive: 89.1 µM [inhibitor, partial curve]	
CCCCn1nc(C(=O)Nc2ccccc2N2CCCC2)c2ccccc2c1=O	inconclusive: 11.2 µM [inhibitor, full curve]	
O=Cc1sc(=O)n(Cc2cccc(C(=O)O)c2)c1Cl	inactive	
COc1ccc(CNCc2c(F)cccc2F)cc1OC	active: 3.98 µM	
O=C(Nc1ccc(Nc2ccncc2)cc1)c1ccc(Nc2ccnc3ccc([N+](=O)[O-])cc23)cc1[N+](=O)[O-]	inconclusive: 89.1 µM [inhibitor, single point]	
Cc1cccc(NS(=O)(=O)c2ccc3[nH]c(=O)cc(C(=O)OC(C)C(=O)Nc4ccc([N+](=O)[O-])cc4)c3c2)c1 (stereo unspecified)	inconclusive: 28.2 µM [inhibitor, full curve, poor fit]	
CCCCNC(=O)N(O)C1N(/N=C/c2ccccc2O)C(=S)SC1(C)C (stereo unspecified)	inconclusive: 56.2 µM [inhibitor, partial curve, poor fit]	

Compound	Potency	activity change, negative = inhibition
CSc1nnc(Cn2c(=O)sc3ccccc32)n1-c1ccccc1C	inconclusive: 15.8 µM [inhibitor, full curve, poor fit]	
CC(C)c1cc(N=O)cc(C(C)C)c1O	inactive	
O=C(NNC(=O)c1ccccc1Br)c1ccc2nc[nH]c2c1	inconclusive: 56.2 µM [inhibitor, partial curve]	
CCOc1ccc(C(=O)N(Cc2ccccc2)c2cccc(C)c2)cc1OC	inactive	
COc1ccc(C)cc1NC(=O)CSc1nnc(COc2ccc(C)cc2)n1Cc1ccco1	inconclusive: 50.1 µM [inhibitor, partial curve]	
CC(C)(C)OC(=O)N1CCC(c2c(C(=O)NCCN3CCOCC3)cnn2-c2ccc(F)cc2F)CC1	inactive	
O=C(NCc1ccccc1)C1=C[C@@H](C2CCCCC2)C[C@@H](OCCCCO)O1	inactive	
N#Cc1ccc(CSc2nnc(NC(=O)C3CCCO3)s2)cc1 (stereo unspecified)	inconclusive: 70.8 µM [inhibitor, single point]	
Cc1ccc(-n2cc(-c3ccccc3)c3c(N4CCN(C)CC4)ncnc32)cc1		inconclusive: -75% [inhibitor]
Cc1cccc(/C(N)=N/OC(=O)N2c3ccccc3Sc3ccccc32)c1	inconclusive: 56.2 µM [inhibitor, partial curve]	
O=C(CC(=O)c1cccs1)c1ccncc1	inconclusive: 31.6 µM [inhibitor, full curve]	
c1ccc(N2CCN(Cc3ccsc3)CC2)nc1	active: 3.16 µM	
CCSC1=N/C(=C\c2ccc(-c3ccccc3[N+](=O)[O-])o2)C(=O)S1	inconclusive: 3.16 µM [inhibitor, single point]	
CCc1ccc(NS(=O)(=O)c2ccc3[nH]c4c(c3c2)CCCCCC4)cc1	inconclusive: 44.7 µM [inhibitor, partial curve]	
CCC(C)c1ccccc1OCCOCCN1CCCC1 (stereo unspecified)	active: 2.51 µM	
N#Cc1cc2c(=O)n3ccccc3nc2n(Cc2ccco2)c1=NC(=O)c1ccco1	inconclusive: 100 µM [inhibitor, partial curve, poor fit]	
O=C(NC(Nc1nc2ccc([N+](=O)[O-])cc2s1)(C(F)(F)F)C(F)(F)F)c1ccccc1	inconclusive: 89.1 µM [inhibitor, partial curve]	
COc1ccc(CN2CCN(C(=O)c3cccs3)CC2)cc1	active: 1.26 µM	
CC(C)C(CCNC1CCN(C)CC1)c1ccc(Cl)cc1 (stereo unspecified)	active: 56.2 µM	
CCc1nc(NCC(C)C)c(C#N)c2c1COC(C)(C)C2	inactive	
Nn1cc(-c2ccccc2)nc1SCC(=O)Nc1ccc2c(c1)OCO2	inconclusive: 70.8 µM [inhibitor, single point]	
O=C(Nc1ccccc1F)c1ccc(CN2CCN(c3ccccc3)CC2)cc1	inconclusive: 89.1 µM [inhibitor, partial curve]	
CCOc1ncccc1C(=O)OCC(=O)c1ccc(F)cc1	active: 20 µM	
